Test results from PubChem BioAssay AID2147 (National Center for Advancing Translational Sciences (NCATS), 2009).
“And” between values parts separate entries of the source, which are not always exact repeats. Equal values may be shown once. Among all 230,000 compounds or so, about 3,600 (1.6%) were called active. Inconclusive means that the source gave no clear call. Such entries were picked first, then a sample of the others. The call rests on the fitted dose curve; in most records, active means well fitted inhibition curve with a large enough effect (not every such curve was filed as active); inconclusive means small, poorly fitted or top-dose-only effect, or another doubt; inactive means no such curve, though single readings can be large or run the other way. Potencies of inconclusive entries are doubtful fits and often do not repeat.

biological target: Lysine-specific demethylase 4E (Homo sapiens) (UniProt B2RXH2); assay: qHTS Assay for Inhibitors of Human Jumonji Domain Containing 2E (JMJD2E); conditions: JMJD2E catalytic domain, FDH-coupled NADH fluorescence (FDH is formaldehyde dehydrogenase); series mostly up to 57.1 µM; activity change, negative = inhibition: at the top concentration
UniProt B2RXH2, sequence (B2RXH2 whole entry, looked up, the tested form may be a part): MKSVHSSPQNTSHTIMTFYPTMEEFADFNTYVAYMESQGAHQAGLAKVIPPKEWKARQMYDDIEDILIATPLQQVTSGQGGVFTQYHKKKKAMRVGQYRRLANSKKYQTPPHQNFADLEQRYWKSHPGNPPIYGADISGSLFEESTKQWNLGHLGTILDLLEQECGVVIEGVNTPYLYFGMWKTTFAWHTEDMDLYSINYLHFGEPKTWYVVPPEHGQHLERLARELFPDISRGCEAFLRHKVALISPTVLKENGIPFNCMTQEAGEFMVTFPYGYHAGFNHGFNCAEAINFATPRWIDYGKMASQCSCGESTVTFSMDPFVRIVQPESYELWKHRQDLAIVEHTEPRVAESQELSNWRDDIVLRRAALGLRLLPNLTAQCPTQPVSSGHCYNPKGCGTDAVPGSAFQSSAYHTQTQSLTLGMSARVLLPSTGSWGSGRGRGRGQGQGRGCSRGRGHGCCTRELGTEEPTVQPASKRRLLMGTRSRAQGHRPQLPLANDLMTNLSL
Further: nearly all actives have a fitted effect of over 50% in size.
Potency means the concentration at half of the fitted maximal effect; tags describe the fitted curve by direction and shape.
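Wherever activity change, negative = inhibition is given: 0% = wells with enzyme and -100% = buffer wells without enzyme.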

SMILES | Potency | activity change, negative = inhibition
CCCc1cc(=O)oc2cc(OCC(=O)OC)cc(OCC(=O)OC)c12 | inconclusive: 25.1 µM [inhibitor, partial curve] | 
C[C@@](N)(Cc1ccc(O)c(O)c1)C(=O)O | active: 4.47 µM and active: 7.94 µM | 
CCSC1=N/C(=C\c2ccc(-c3ccccc3[N+](=O)[O-])o2)C(=O)S1 | inconclusive: 39.8 µM [inhibitor, single point] | 
CC(C)(C)C(=O)COC(=O)c1cc(-c2ccncc2)nc2ccccc12 | inconclusive: 28.2 µM [inhibitor, single point] | 
CCCCc1c(C)c2ccc(OC)c(/C(C)=N\O)c2oc1=O | inconclusive: 25.1 µM [inhibitor, single point] | 
c1ccc(N2CCN(Cc3ccsc3)CC2)nc1 |  | inactive: -9.48%
Cc1ccc(SCC(=O)NCC(C)C)cc1 |  | inactive: 4.78%
CCOc1ccc(S(=O)(=O)Nc2ccc(C(=O)N/N=C(\C)c3ccc(-n4ccnc4)cc3)cc2)cc1 |  | inactive: 23.8%
CCOC(=O)c1c(C2CC2)csc1NC(=O)COC(=O)CCS(=O)(=O)c1ccc(C)cc1 | inconclusive: 35.5 µM [inhibitor, single point] | 
CCOC(=O)N1CCC(NC(=O)c2cc3c(=O)[nH]c4ccccc4c3n2C)CC1 | inconclusive: 25.1 µM [inhibitor, partial curve] | 
C=CCNc1nnc(SCC(=O)N2CCCCC2)c2ccccc12 | inconclusive: 28.2 µM [inhibitor, partial curve] | 
Cc1ccc(C)n1-c1ccc(-c2ccnc(N)n2)cc1 | inconclusive: 31.6 µM [inhibitor, partial curve] | 
O=C(Nc1ccc(Nc2ccncc2)cc1)c1ccc(Nc2ccnc3ccc([N+](=O)[O-])cc23)cc1[N+](=O)[O-] | inconclusive: 39.8 µM [inhibitor, single point] | 
CCOc1ccc(C2N(c3ccc(OC)cc3)C(=O)C3CCCN32)cc1OC (centres undefined) |  | inactive: 3.49%
C/C=C(/C)C(=O)OC1Cc2c(ccc3ccc(=O)oc23)OC1(C)C (centres undefined) | inconclusive: 31.6 µM [inhibitor, partial curve] | 
C#CCn1c(=NC(=O)c2cccs2)sc2cccc(OCC)c21 | inconclusive: 25.1 µM [inhibitor, partial curve] | 
O=C(NCc1ccco1)c1cc(S(=O)(=O)N2CCOCC2)c(Cl)cc1Cl |  | inactive: -1.89%
CCc1nc(N2CCOCC2)c(C#N)c2c1CCCC2 | inconclusive: 31.6 µM [inhibitor, partial curve] | 
COc1ccc2[nH]c(C(=O)NCCN3CCCCC3)cc2c1 | inconclusive: 25.1 µM [inhibitor, partial curve] | 
Cc1ccc(C(=O)NCCn2c(N)c(C#N)c3nc4ccccc4nc32)cc1 | inconclusive: 28.2 µM [inhibitor, partial curve] | 
C=CCn1c(C)csc1=Nc1ccc(C(=O)O)cc1 |  | inactive: -15.5%
CS(=O)(=O)c1nc(-c2ccccc2)cc(-c2ccccc2)c1C#N | inconclusive: 35.5 µM [inhibitor, single point] | 

SMILES | Potency | activity change, negative = inhibition
O=C(Cn1nnc(-c2ccccc2)n1)N=Nc1c(O)[nH]c2ccccc12 |  | inactive: -0.0214%
CC(C(=O)NCc1ccccc1)N(CCN1CCOCC1)C(=O)c1snc(C(N)=O)c1N (centres undefined) | inconclusive: 28.2 µM [inhibitor, single point] | 
O=C(NCC1CCCO1)Nc1ccc2c(c1)OCO2 (centres undefined) |  | inactive: -2.33%
CCn1c(=N)c(C(=O)NCCCOC)cc2c(=O)n3cccc(C)c3nc21 | inconclusive: 7.94 µM [inhibitor, partial curve] | 
COC/C=C/C1=CC2=CC(=O)C(C)(OC(=O)c3cnc4ccccc4n3)C(=O)C2=CN1Cc1ccccc1 (centres undefined) | inconclusive: 17.8 µM [inhibitor, partial curve] and inconclusive: 3.16 µM [inhibitor, single point] | 
O=C(CSc1ccsc1[N+](=O)[O-])NCc1ccccc1 |  | inactive: -1.24%
Cc1cc(C)n2cc(CSc3ccc(Br)cc3)nc2n1 | inconclusive: 28.2 µM [inhibitor, partial curve] | 
COc1ccc(C(=O)NCCc2cc3ccc(C)c(C)c3[nH]c2=O)cc1OC | inconclusive: 17.8 µM [inhibitor, partial curve] | 
COc1ccc(OC)c(/C=N/NC(=O)c2cc3c(OC)cccc3[nH]2)c1 | inconclusive: 28.2 µM [inhibitor, partial curve] | 
CC1(C)Cc2ccccc2-c2nnc(-c3cccc(O)c3)n21 | inconclusive: 39.8 µM [inhibitor, single point] | 
O=C(CSc1nnc(CCCN2C(=O)c3cccc4cccc(c34)C2=O)n1-c1ccccc1)N1CCN(CCO)CC1 | inconclusive: 28.2 µM [inhibitor, partial curve] | 
CCOP(=O)(c1ccc(N(C)C)cc1)C(O)c1ccncc1 (centres undefined) | inconclusive: 35.5 µM [inhibitor, partial curve] | 
COc1ccccc1-c1cc(-c2cc(Cl)ccc2O)n[nH]1 | inconclusive: 39.8 µM [inhibitor, single point] | 
O=C(CCCN1C(=O)c2cccc3cccc(c23)C1=O)NCCN1CCOCC1 | inconclusive: 28.2 µM [inhibitor, partial curve] | 
O=C(O)CCc1ccc(-c2ccc(F)cc2)n1CC1CCCO1 (centres undefined) | inconclusive: 31.6 µM [inhibitor, single point] | 
CCC(C)NC(=O)c1cn(CC)c2ccc(S(=O)(=O)N(C)C)cc2c1=O (centres undefined) |  | inactive: 2.92%
Cc1ccc(NC(=S)/C(=C(\[O-])c2ccc(F)cc2)[n+]2ccccc2)cc1 |  | inactive: -12.9%
Cc1cc(/C=N/NC(=O)C(=O)NCc2ccccn2)c(C)n1-c1cccc(Br)c1 |  | inactive: -13%
COc1ccc(C(=O)c2ccc(OC)c(Br)c2)cc1Br |  | inactive: 7.55%
COc1ccc(NC(=O)Cn2c(-c3ccc(OC)cc3)cn(-c3ccc(C)cc3)c2=O)cc1 | inconclusive: 22.4 µM [inhibitor, single point] | 
O=C(CC1(O)C(=O)N(Cc2ccccc2)c2ccccc21)c1ccncc1 (centres undefined) |  | inactive: -1.03%
O=S(=O)(Nc1cccc(-c2cn3cccnc3n2)c1)c1ccc(-c2ccccc2)cc1 | inconclusive: 31.6 µM [inhibitor, partial curve] | 
